Experimental data taken from patent publication US20240254245A1 (JIANGSU HENGRUI PHARMACEUTICALS, published 2024).

What was measured:
[1] = biological target: T1, human RANKL protein (Sino Biological, 11682-HNCH) (human, UniProt O14788 136-317, limits assumed); assay: cell-based or functional assay
T1 sequence (looked up): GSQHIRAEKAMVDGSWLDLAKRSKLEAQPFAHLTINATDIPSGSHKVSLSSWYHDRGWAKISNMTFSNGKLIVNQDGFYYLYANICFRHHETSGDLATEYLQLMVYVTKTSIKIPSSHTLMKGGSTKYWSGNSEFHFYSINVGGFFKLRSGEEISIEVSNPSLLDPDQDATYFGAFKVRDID

[2] = biological target: T1, human RANKL protein (Sino Biological, …); assay: cell-based or functional assay; remark: listed apart in the source
[3] = biological target: T2, human NGF protein (Sino biological, 11050-HNAC) (human, UniProt P01138 partial chain); assay: cell-based or functional assay
[4] = biological target: T1, human RANKL protein (Sino Biological, …); assay: SPR (Biacore), antibody captured on Protein A chip
Protocol: (§1) Reaction signals were detected in real time by using Biacore, and binding and dissociation curves were obtained. After dissociation was complete in each cycle, the biochip was washed and regenerated with a glycine-hydrochloric acid regeneration solution (GE, BR-1003-54) having a pH of 1.5. Fitting was performed on the experimental data using BIAevaluation version 4.1 software with a 1:1 model, and affinity values were obtained.

[5] = biological target: T1, human RANKL protein (Sino Biological, …); assay: ELISA on coated antigen (1 ug/mL), anti-human Fc-HRP
Protocol: (§2) The antigen was diluted to 1 μg/mL with a pH 7.4 PBS buffer (BasalMedia, B320) and added to a 96-well microplate (Coming, 9018) at 100 μL/well, and the plate was incubated overnight at 4° C. After the liquid was discarded, a 5% skim milk (BD, 232100) blocking solution diluted with PBS was added at 300 μL/well, and the plate was incubated at 37° C. for 2 h for blocking. After the blocking was complete, the blocking solution was discarded, and the plate was washed 3 times with a PBST buffer (pH 7.4 PBS containing 0.1% tween-20). Then a bispecific antibody diluted with a sample diluent (pH 7.4 containing 1% BSA) to different concentrations was added at 100 μL/well, and the plate was incubated in a 37° C. incubator for 1 h. After the incubation was complete, the plate was washed 3 times with PBST. An HRP-labeled anti-human Fc secondary antibody (Abcam, ab97225) diluted with the sample diluent was added at 100 μL/well, and the plate was incubated at 37° C. for 1 h. After the plate was washed 3 times with PBST, TMB chromogenic substrate (KPL, 5120-0077) was added at 100 μL/well, and the plate was incubated at room temperature for 10 to 15 min. 50 μL of 1 M H₂SO₄ was added to each well to stop the reactions. The absorbance values at 450 nm were taken using a microplate reader, and the EC50 values for binding of the bispecific antibody to the antigens were calculated.

[6] = biological target: T3, monkey RANKL (Sino Biological, 90301-C01H) (monkey); assay: as above
T3 construct: Bought protein
Protocol: as §2

[7] = biological target: T4, murine RANKL (R&D Systems, 462-TR/CF) (murine, UniProt O35235 72-316, limits assumed); assay: as above
T4 construct: Bought protein
T4 sequence (looked up): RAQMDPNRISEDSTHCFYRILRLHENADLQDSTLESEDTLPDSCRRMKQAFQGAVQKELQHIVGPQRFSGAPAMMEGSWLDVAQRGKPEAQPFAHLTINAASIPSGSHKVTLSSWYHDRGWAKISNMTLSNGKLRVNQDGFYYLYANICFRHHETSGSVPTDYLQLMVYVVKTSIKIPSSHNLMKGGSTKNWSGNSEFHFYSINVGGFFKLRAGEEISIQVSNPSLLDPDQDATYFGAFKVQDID
Protocol: as §2

[8] = biological target: T2, human NGF protein (Sino biological, …); assay: as above
Protocol: as §2

[9] = biological target: T5, murine NGF (Sino Biological, 50385-MNAC) (murine, UniProt P01139 122-241); assay: as above
T5 construct: Bought protein
Protocol: as §2

[10] = biological target: T1, human RANKL protein (Sino Biological, …); assay: SPR (Biacore), antibody captured on Protein A chip, antigen in flow, 1:1 fit
Protocol: as §1

[11] = biological target: T2, human NGF protein (Sino biological, …); assay: as above
Protocol: as §1

[12] = biological target: T2, human NGF protein (Sino biological, …); assay: blocking ELISA: antibody titrated with fixed biotin-human NGF, on coated human TrkA
Protocol: (§3) The plate was incubated at 37° C. for 1.5 h. After the incubation was complete, the plate was washed 3 times with PBST. Streptavidin-HRP (Invitrogen, 434323, diluted at 1:4000) was added at 100 μL/well, and the plate was incubated at 37° C. for 1 h. The supernatant was removed. After the plate was washed 3 times with PBST, TMB chromogenic substrate (KPL, 5120-0077) was added at 100 μL/well, and the plate was incubated at room temperature for 10 to 15 min. […] The absorbance values at 450 nm were taken using a microplate reader.

[13] = biological target: T1, human RANKL protein (Sino Biological, …); assay: blocking ELISA: antibody titrated with fixed biotin-human RANKL, on coated human RANK
Protocol: as §3

T2 sequence (P01138 122-241 limits assumed): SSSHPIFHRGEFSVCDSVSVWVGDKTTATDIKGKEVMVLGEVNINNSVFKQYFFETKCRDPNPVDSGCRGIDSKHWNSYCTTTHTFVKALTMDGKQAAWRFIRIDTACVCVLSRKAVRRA
T5 sequence (P01139 122-241 limits assumed): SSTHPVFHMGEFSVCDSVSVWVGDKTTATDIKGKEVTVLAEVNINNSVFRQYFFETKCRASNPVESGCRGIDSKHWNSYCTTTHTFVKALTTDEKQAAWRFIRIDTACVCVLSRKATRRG

B1: Bispecific antibody 1 (bispecific antibody, human IgG4 S228P, kappa)
heavy: EVQLLESGGGLVQPGGSLRLSCAASGFTFSSYAMSWVRQAPGKGLEWVSGITGSGGSTYYADSVKGRFTISRDNSKNTLYLQMNSLRAEDTAVYYCVKDPGTTSIMSWFDPWGQGTLVTVSSASTKGPQVQLQESGPGLVKPSETLSLTCTVSGFSLIGYDLNWIRQPPGKGLEWIGIIWGDGTTDYNSAVKSRVTISKDTSKNQFSLKLSSVTAADTAVYYCARGGYWYATSYYFDYWGQGTLVTVSSASTKGPSVFPLAPCSRSTSESTAALGCLVKDYFPEPVTVSWNSGALTSGVHTFPAVLQSSGLYSLSSVVTVPSSSLGTKTYTCNVDHKPSNTKVDKRV[sequence of human IgG4 Fc with S228P (EU numbers) omitted]
light: EIVLTQSPGTLSLSPGERATLSCRASQSVRGRYLAWYQQKPGQAPRLLIYGASSRATGIPDRFSGSGSGTDFTLTISRLEPEDFAVFYCQQYGSSPRTFGQGTKVEIKTVAAPDIQMTQSPSSLSASVGDRVTITCRASQSISNNLNWYQQKPGKAPKLLIYYTSRFHSGVPSRFSGSGSGTDFTFTISSLQPEDIATYYCQQEHTLPYTFGQGTKLEIKRTVAAPSVFIFPPSDEQLKSGTASVVCLLNNFYPREAKVQWKVDNALQSGNSQESVTEQDSKDSTYSLSSTLTLSKADYEKHKVYACEVTHQGLSSPVTKSFNRGEC
notes: second chain = RANKL VL - linker TVAAP - NGF VL - kappa constant region; also called anti-RANKL/NGF bispecific antibody; DVD-IgG
For B1, the “osteoclast differentiation-inhibiting activity, fold relative to denosumab” value [1] was 3.3 times, the “osteoclast differentiation-inhibiting activity (Raw264.7 cells + human RANKL, TRAP assay) IC50” value [2] was 1.19 nM and the “TF-1 cell proliferation-inhibiting activity (TF-1 cells + human NGF, Cell-titer Glo) IC50” value [3] was 3.16 nM. The “affinity, fold of that of denosumab” value [4] was 3.8 times, the EC50 [5] was 0.0624 nM and the EC50 [6] was 0.467 nM. For the same binder, the binding result [7] was “no binding”, the EC50 [8] was 12.3 nM and the EC50 [9] was 4.34 nM. It also gave a Kd [10] of 3.89 nM, a koff [10] of 8.77e-05 s⁻¹ and a kon [10] of 22500 M⁻¹ s⁻¹. The Kd [11] was 56.1 nM, the koff [11] was 6.33e-05 s⁻¹ and the kon [11] was 1130 M⁻¹ s⁻¹. For the same binder, the IC50 [12] was 102 nM and the IC50 [13] was 0.323 nM.
